Assay results from the supplement of paper PMC11417369.
This is one part of the list.

Test system: PfAP2-HC AP2 domain (GST-tagged)
Assay: gcPBM binding intensity (ln(normalized median fluorescence intensity)); higher = stronger DNA binding
How it was run: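 Using an Agilent 4 × 180k array, primer-extended double-stranded 36-bp intergenic genomic probes and negative controls were exposed for 1 h to GST-fused P. falciparum DNA-binding domains expressed in E. coli. Binding was carried out in 1× PBS with 1% milk, 0.2 mg/ml BSA, 0.5% salmon testes DNA and 0.03% Triton X-100, and protein was detected with Alexa488 anti-GST antibody and a 488 nm scan. Binding intensity is the highest Masliner-normalised natural-log median intensity across replicate spots of either probe orientation.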

Row | Sequence | gcPBM binding intensity (ln)
1 | TTATTTTTTTTTTTTCGTACTTATTTATCTTGGTAT [XGTACX_site78] | 9.59
2 | TTTTTATTAATAGATATAAATATATAATATGAATGT [TGCATGCA_negctrl_site309] | 9.55
3 | ATATATATATATATTTGTACAGATTTATATTATAAT [XGTACX_site7612] | 9.52
4 | CCATATAATATGAACAGTACACACAAAATAAATTCG [XGTACX_site7590] | 9.85
5 | AAATATTATAGCACCACACACTTATTTTATATATAT [CACACA_site5281] | 10.4
6 | GAAAATTTAATATAGAACGAAAGCATACACATATAT [GTGCAC_negctrl_site424] | 9.75
7 | AAAAATTTTTTTTCATTTGTTTTTATTCCGTAAAAA [CACACA_negctrl_site1217] | 9.17
8 | AATATAAAAAAAAAATGTACATATTATATATATATA [XGTACX_site5113] | 9.69
9 | ACCGAAGGAATTTATAGTACACATCATAAATAAATT [XGTACX_site4100] | 9.61
10 | TATAATATAAAATAATGTACTTTGAAATATGACATA [XGTACX_site3579] | 9.56
11 | AGTTTGATTTTTTCTTATAATATATTATTATATATT [CACACA_negctrl_site376] | 9.99
12 | TTTTTGTTTTTGTTTTGTACTCATACATACTATCAT [XGTACX_site4210] | 9.83
13 | GGGGTATCTTCCTATGCACACTTGTTATGTACTAAC [CACACA_site4610] | 10
14 | CTTTTATTAAAATTCACACACATAAATTTTTATAAA [CACACA_site1993] | 9.6
15 | ATATATACGTATGAATGTATATTTGTTTGATTTTTT [CACACA_negctrl_site835] | 9.66
16 | ATATGTGATTTCTAATGTACACAAAAAAAAAAAAAA [XGTACX_site7701] | 9.58
17 | TTATGTCATAAATGCACACATATATAAATACAGATA [CACACA_site4959] | 9.81
18 | TCTTCAAACAAAAAAAATAATAAAAAGTACAAAATG [CACACA_negctrl_site363] | 9.6
19 | CAAAGAGAAATAAACACACACAAAATAAAGAAAAAA [CACACA_site2245] | 10.3
20 | TTCTTTTTTCAACACACACACACAAGAAAATATATA [CACACA_site9019] | 10.3
21 | AAAAAAAAAAAAAAAACACACATATAGATTTATATA [CACACA_site7196] | 9.88
22 | TTTTTTCTATTGAGCACACATATCACGATTAGTACT [CACACA_site313] | 9.83

Row | Sequence | gcPBM binding intensity (ln)
23 | ATATATATTATTTCTACACACATATATATAATATGT [CACACA_site3374] | 10.1
24 | GCTCAATTTTTGGGTACACACAAATGTATAATAATA [CACACA_site2388] | 9.74
25 | GCACTCGTAAAAAGCACACATATAAAAACATTTATA [CACACA_site322] | 9.74
26 | TGAACAGACAAATACACACACTCAAAAAAAAAAAAG [CACACA_site7287] | 10.1
27 | CAATGCTTTATCAATACATGCATATATATAGAAATA [TGCATGCA_site857] | 9.48
28 | ATTTTCAAATTCTATGCATGTGTATATTATAGATAA [TGCATGCA_site1003] | 9.55
29 | AAAATCTATAATATAACACACATATATTCTATATGG [CACACA_site7821] | 9.68
30 | TTCCTGTTAATTACAACACACAATTCTTATTTTATG [CACACA_site6507] | 9.96
31 | CATACATACAGACACACACACATATAAATACATACA [CACACA_site6533] | 10.3
32 | TTATGATATATTTGTTGTACGCTTTTTTTATGAACT [XGTACX_site573] | 9.73
33 | GTAAGTTGTGCATTCACACACATATAAATATAAATA [CACACA_site7536] | 9.9
34 | CATTATGTTGTAAATGCACACATACAAATACATATA [CACACA_site8380] | 9.78
35 | AATTAAATTACTTATACACACATAAAATGCCTGTAT [CACACA_site6597] | 9.84
36 | ATGACCCACTTTTCTGCACACATAAAAAATATATAA [CACACA_site8092] | 9.77
37 | AACACATACATATATACACACACAAAATAATAAAAT [CACACA_site8724] | 10.6
38 | TTAACAAAACTTTTAACACACAAAAAAAAAAAAAAA [CACACA_site6947] | 9.35
39 | CTATAATAATAAAGTGAACACACACCGATAATATAT [CACACA_site9377] | 10.1
40 | TTTTTTTTACATTCTGCACACAATTTATTTTTTTTT [CACACA_site36] | 10
41 | AAAAATGAGTGACACACACACATATAAATATAAATA [CACACA_site7115] | 10.1
42 | AAATCAAACTTTGGTGTGCACAAATATATACATATA [GTGCAC_site9986] | 10
43 | TTGATAATTATATAATGTACTCATTATAATATGATG [XGTACX_site7813] | 9.48
44 | TATAAAAAAAAAAAAAGTACTAACTTAAAACAATTT [XGTACX_site7969] | 9.51

Row | Sequence | gcPBM binding intensity (ln)
45 | TAATTAATAATAATATGTACATATTAATATATTATT [XGTACX_site6900] | 9.61
46 | TTTTATATATATATCACACACACACCCATGTTTTAA [CACACA_site79] | 10.4
47 | TTTATTCTCAAACACACACACATATATATATATATA [CACACA_site2895] | 9.99
48 | TGATAAAGTAAATATACATGCGATTAGTTATATATA [TGCATGCA_site720] | 9.65
49 | TATTTATTCTCCAACACACACACATATATTTATATA [CACACA_site7376] | 10.4
50 | AGTTTGTCAATCAACACACACCTATTTATTATAGAT [CACACA_site7777] | 9.99
51 | GTGTTAAATGTTTACACACAAACTTGCAATAATTAT [CACACA_site3825] | 9.82
52 | TTGCATTTATTATACACACACAAAAAAATATATATA [CACACA_site238] | 10.5
53 | AAAAATTATAACTAAAAAAATCACACAAAATATTTT [TGCATGCA_negctrl_site28] | 9.59
54 | TATGTATTTAAGTTACCTGAACGTTCAGGTAAAATT [CACACA_negctrl_site1393] | 9.65
55 | GTAATTTTAAAGAAAAGTACACATTTATTAATTATT [XGTACX_site4468] | 9.54
56 | ACATATAAATATTGTGTGCACACACATAATATATAT | 11.3
57 | GTGTAGTAAAATCGATGTACGTACAAATCAATTATT [XGTACX_site7662] | 10
58 | AAAAAAATGAAGAAATGTACAAATTTCATTAATTTT [XGTACX_site354] | 9.55
59 | TATATATGTAAATGCACACATATGTGGATATACTTA [CACACA_site1699] | 9.82
60 | GCGAGATGCTAAAATGCATGTTGGGCATTAGTTAAA [TGCATGCA_site586] | 9.52
61 | TATAATAATTCTTTGAGTACTTAAACATGTGAAATT [XGTACX_site955] | 9.48
62 | TATCATTTCTAAAAAGGTACACATACATCATATATT [XGTACX_site3386] | 9.55
63 | ATATTAATATATGTGGCACACATGTGGAGTCCTATT [CACACA_site213] | 9.93
64 | GCAGGCTAAAAAATTACACACGAAAAAAATGAATTT [CACACA_site3417] | 9.61
65 | CATATATGGTTATATACATGCACCATTATATTATTA [TGCATGCA_site520] | 9.54
66 | TATATAATATTTTTCACACACCATTTCCTTAAACAC [CACACA_site4862] | 10.1

Row | Sequence | gcPBM binding intensity (ln)
67 | TAAAAAAAAAGAAGGGGTACATGGATAATATATAAA [XGTACX_site8386] | 9.75
68 | TGTATAACCTGTGTTACACACATTATGATTTATATA [CACACA_site525] | 10.2
69 | CATTTTTACCGGTACTGTACATAAAAAAAAAAAAAG [XGTACX_site1548] | 9.59
70 | TTATATGTTTTACAACGTACACAAAAAAAACTTATA [XGTACX_site4413] | 9.41
71 | AGTTATATGGTTAATACACACAACAAATGTTTCTTC [CACACA_site6642] | 9.76
72 | GTGTGATGGTACAATATACACACTTAAAAAAAAAAA [CACACA_site8769] | 9.72
73 | AAAAAATATATTTGCACACTCAAAAAAAAAAAAAAA [CACACA_site859] | 9.46
74 | ATACATAAAATTAAAACACACATTTTATTAAATACG [CACACA_site2167] | 9.73
75 | TAAGAAATAAATAGTACACACATAGACACACGCACA [CACACA_site6821] | 10.7
76 | AATATAACTTAGAATTGTACATAAAAAAAAATATAT [XGTACX_site3313] | 9.75
77 | TATAAAATACATTTATAATATATATATATATTTTTT [TGCATGCA_negctrl_site435] | 9.59
78 | ATATGAAATATATAAATATGTTTATATATATATATA [GTGCAC_negctrl_site94] | 9.5
79 | ATTTATTTATACAAAGTGCAATATTTTGTTAAAGTC [GTGCAC_site9618] | 9.63
80 | AAACAAAATATGGTTCATGAGCAAAAGTTTATTTTG [XGTACX_negctrl_site531] | 9.74
81 | AATGTAAAATATAAATGTACATATATATATATATAT [XGTACX_site5071] | 9.65
82 | CTCTTTTCTTATAATACACACAGTAATATATATATA [CACACA_site1520] | 9.87
83 | ATACATATATATATATGTACACATAAACATGAGTGA [XGTACX_site3200] | 9.85
84 | TAATGGAAACCATTTATTTTCTGCAATATATTTTTT [CACACA_negctrl_site1653] | 9.47
85 | TGTGTTTATACGTTTTGTACATATTTTTATTTTGTA [XGTACX_site6425] | 9.74
86 | TTTACATCAACCTTTTCACACATTCATATACAGATA [CACACA_site6152] | 9.68
87 | TTCAAAAAATAAAATAATAATATATATATAAATATA [XGTACX_negctrl_site84] | 9.49
88 | TCATTAAAGGAAAAATGTACGTATAAATAAATATAT [XGTACX_site2587] | 9.6
